Data: PubChem BioAssay AID686970 (National Center for Advancing Translational Sciences (NCATS), 2013)
Out of some 360,000 compounds screened, about 6,000 (1.7%) were called active. Inconclusive results, whose numbers are uncertain, are shown with a selection of clear calls. Calls follow the shape of the dose curve; as a rule, active = well fitted cell-killing curve with a large enough effect; inconclusive = small, poorly fitted or top-dose-only effect, or effect the other way; inactive = flat fitted curve, though single readings scatter. No potency is given beside an inconclusive call; the fits are too rough.

Assay: qHTS for induction of synthetic lethality in tumor cells producing 2HG: qHTS for the HT-1080-NT fibrosarcoma cell line;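 also: NT is the 2HG producing partner of a matched IDH1 knockdown line; nearly all actives have a fitted effect of over 55% in size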;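 as to activity, negative = less viability: 0% = DMSO-treated cells and -100% = media-only wells without cells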
Conditions: HT-1080-NT fibrosarcoma viability, CellTiter-Glo ATP luminescence, 48 h; activity, negative = less viability: at 46.1 µM (top of the series) unless noted
Procedure, shortened: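 Viability of the 2HG-overproducing fibrosarcoma line after 48 hours of compound exposure at 37 degrees C was determined by luminescence with CellTiter-Glo, and concentration-effect curves were then fitted and categorized.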
Potency is read from the fitted curve at half-maximal effect; tags tell the direction and shape of the fitted curve.

SMILES | Potency | activity, negative = less viability
COc1cccc(C2=NNC(=NCc3ccccc3)SC2)c1 | inactive | 
C=CC(=O)Nc1ccc(Nc2nc(NC3CCC(N(C)C)CC3)nc3c2ncn3C(C)C)cc1 (stereo not drawn) | inconclusive [cytotoxic, full curve] | 
CCOc1ccc(N=Cc2c(C)[nH]n(-c3nc4ccccc4[nH]3)c2=O)cc1 | active: 5.17 µM | 
C/C(=N\NC(=O)c1ccccc1-n1cccc1)c1ccccn1 | inconclusive [cytotoxic, full curve] | 
CN(CC(=O)Nc1ccccc1-c1ccccc1)Cc1ccccc1Cl | inconclusive [cytotoxic, single point] | 
Cc1c(C(=O)NN)[nH]c2ccc([N+](=O)[O-])cc12 | inconclusive [cytotoxic, single point] | 
Cc1ccsc1C(=O)OCC(=O)NCc1ccco1 | inactive | 
Oc1c(CN2CCN(c3ccccn3)CC2)cc(Cl)c2cccnc12 | inconclusive [cytotoxic, partial curve] | 
COc1cc(OC)c2nc(C)c3c(c2c1)N(c1ccc(O)cc1)CC3 | inconclusive [cytotoxic, single point] | 
COc1cccc(C2(c3cccc(OC)c3)CC2C(=O)Nc2ccccc2Cl)c1 (stereo not drawn) | inconclusive [cytotoxic, partial curve] | 
CC(C)n1nnnc1SCC(=O)c1ccc2c(c1)OCCO2 | inactive | 
Cc1ccc(/C=C/c2onc(C)c2S(=O)(=O)N2CCC(C(=O)N3CCCCC3)CC2)cc1 | inactive | 
COc1ccc(Cn2c(CO)cnc2SCC(=O)Nc2cccc(NC(C)=O)c2)cc1 | inactive | 
COc1cc(NC(=O)c2ccc(Cl)cc2Cl)ccc1NC(=O)c1cccs1 |  | inconclusive: 18.4%
O=C(Nc1cccc(S(=O)(=O)Nc2ccc(Cl)cc2)c1)c1ccc(Cl)nc1 | inconclusive [cytotoxic, partial curve] | 
Cc1nn(CC(C)C)c(Cl)c1C(=O)N(c1ccc(Cl)cc1F)S(C)(=O)=O | inconclusive [cytotoxic, single point] | 
CCOC(=O)c1cnc2ccc(OCC)cc2c1N(C)Cc1ccccc1 | inconclusive [cytotoxic, single point] | 
CCOC(=O)[C@@H]1[C@H]2COc3cc(OC)ccc3[C@@H]2N2C(=O)N(c3cccc(C)c3)C(=O)[C@]12C | inconclusive [rising, single point] | 
C=CCN1CCc2c(cc(O)c(O)c2Br)[C@@H](c2ccccc2)C1 |  | inconclusive: -47.5%
COc1ccc(-c2cc(NC=O)c3ncc(-c4cccc(C(F)(F)F)c4)n3c2)c(OC)c1 | inconclusive [cytotoxic, partial curve] | 
CCOC(=O)Cn1nnnc1C(C(C)C)N(Cc1cc2c(C)cc(C)cc2[nH]c1=O)C1CCCC1 (stereo not drawn) | inconclusive [cytotoxic, partial curve] | 
Oc1ccccc1-n1c(-c2ccccc2)ccc1-c1ccccc1 | inconclusive [cytotoxic, single point] | 
C/C(=C\c1cccc(Br)c1)C(=O)c1c(C)cc(C)[nH]c1=O | inactive | 
COc1ccc(NC(=O)Cn2nnc3ccccc32)c([N+](=O)[O-])c1 | inactive | 

SMILES | Potency | activity, negative = less viability
CCOC(=O)Nc1ccc2c(c1)N(C(=O)CCN(CC)CC)c1ccccc1S2=O (stereo not drawn) | active: 16.4 µM | 
O=C(CCn1c(=S)oc2ccccc21)NCCC1=CCCCC1 | inactive | 
O=C(C1CC1)N1c2ccccc2Sc2ccccc21 | inconclusive [cytotoxic, single point] | 
Cc1cccc(C#Cc2ccccc2)n1 | inactive | 
c1ccc(-c2nnc(-c3ccccn3)s2)nc1 | inactive | 
COc1cc(Nc2c3c(nc4ccccc24)CCC3)cc(OC)c1OC | active: 1.46 µM | 
CCNC(=O)C1CCCN(C(=O)c2ccccc2)CC1 (stereo not drawn) | inconclusive [rising, single point] | 
CCN(CC)CCOc1ccc2nc(N(C)C)sc2c1 | inactive | 
COc1ccc(-c2nc(NC(=O)C3CCN(c4nc5ccccc5o4)CC3)sc2C)cc1 | inconclusive [cytotoxic, single point] | 
Cc1ccc(SCc2[nH]nc3c2C2(C(=O)N(C)c4ccccc42)C(C#N)=C(N)O3)cc1 (stereo not drawn) | active: 14.6 µM | 
CC1CCCC(NCC(O)COC(c2ccc(F)cc2)c2ccc(F)cc2)C1C (stereo not drawn) | active: 16.4 µM | 
Cc1ccc(-c2cc(C(F)(F)F)c(C#N)c(SCC(=O)O)n2)cc1 |  | inconclusive: -23.6% [cytotoxic]
CC(CN1CCCCC1)OC(=O)c1ccc(Cl)cc1 (stereo not drawn) | inactive | 
Cn1cnnc1Sc1ccc(/C=C/C(=O)c2ccc(O)cc2)cc1[N+](=O)[O-] | active: 18.4 µM | 
COC(=O)c1sc2ncccc2c1OCc1ccc(Cl)cc1 |  | inconclusive: -4.1%
CCCCCC(=O)NC(NC(=S)Nc1ccc(S(N)(=O)=O)cc1)C(Cl)(Cl)Cl (stereo not drawn) | inconclusive [cytotoxic, single point] | 
Cc1cccc(OCC(=O)NCCCNC(=O)c2cccnc2)c1 | inconclusive [cytotoxic, partial curve] | 
CC(=O)NC(c1ccc(F)c(F)c1)c1nc(-c2cccs2)cs1 (stereo not drawn) |  | inconclusive: 22%
CCCCCCSc1ccc(-c2nc3ccc(C)cn3c2NCCCC)cc1OC | active: 20.6 µM | 
Cc1ccc(Cn2ncc(Cl)c(Cl)c2=O)cc1 | inconclusive [cytotoxic, single point] | 
CCOC(=O)c1sc2ccccc2c1OC(=O)c1ccc(C)cc1 | inconclusive [cytotoxic, partial curve, poor fit] | 
Cn1c(N)c(C(c2ccccc2)c2c(N)n(C)c(=O)n(C)c2=O)c(=O)n(C)c1=O | inconclusive [rising, single point] | 
CC(C)c1ccc(NC(=O)N2CCc3nc(NCc4cccc(Oc5ccccc5)c4)ncc3C2)cc1 | inconclusive [cytotoxic, single point] | 
Cc1cc(N2CCOCC2)nc2ccc(NC(=O)CCC(=O)N3CCN(c4cccc(C(F)(F)F)c4)CC3)cc12 | active: 23.1 µM | 
